Sequences with one replicate were seen in a single cluster, so their values are uncertain.
Tested on: ATP
Test: switch fluorescence ratio, 500 uM ATP over buffer (Cy3 cluster intensity, sum of 5 cycles each) (fold (ratio)); higher = stronger signal-on switching upon ATP binding; sequences stand for … in TCGTCGGCAGCGTCAGATGTGTATAAGAGACAGTTTTTTTTTTTTTTTTTTTTTTTTT…TC
Conditions: aptamer strand: ATP DNA aptamer (quencher-CACCTGGGGGAGTATTGCGGAGGAAGG + anchor), 100 nM annealed; ATP concentration: 500 uM; one replicate
In short: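 Five buffer/ATP imaging cycles were run on Cy3-labelled switching-strand clusters on a modified Illumina MiSeq flow-cell, with NaOH stripping and re-annealing between cycles. In each cycle, clusters annealed to 100 nM quencher-labelled ATP aptamer were imaged in selection buffer, then after 15 min with 500 uM ATP at 22 °C. Per cluster, the fluorescence ratio is summed target-cycle over summed buffer-cycle Cy3 intensity, averaged per switch-domain sequence. Only clusters within 100-1000 RFU were kept.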
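Further: ATP exposure 15 min at 22 °C before imaging.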

Row | Sequence | switch fluorescence ratio
1 | GCCTGTGACT | 1.04
2 | AATATCCCCT | 1.08
3 | ACGATGGCGG | 1.03
4 | ACTAGATACA | 1
5 | CCAAAATGCC | 1.12
6 | TCACATTTGT | 1.01
7 | GCTCTTGCGT | 0.97
8 | TAGGGTCGTC | 1
9 | AGAACGGGAA | 1.02
10 | TTCAATTGAT | 0.999
11 | TCCGCGAGTA | 2.2
12 | GGGAGGCCTT | 1.02
13 | GGGTAGTGTG | 0.965
14 | AACGTCGCTC | 1.05
15 | TTGCATGGCG | 1.05
16 | CGCTGCGTCC | 1.09
17 | CAGATTCAGG | 1.03
18 | AGCTCACTTA | 1.06
19 | ATCTTACGCT | 0.978
20 | GGTAACCGGT | 1.06
21 | AGTAGGGCTA | 1.02
22 | AGCGTACGGT | 1.05
23 | GGGAGTTGCG | 1.03

Row | Sequence | switch fluorescence ratio
24 | TTTGCGTCAG | 0.995
25 | TCGTGTCCGC | 1.07
26 | ATGTGGTGCG | 0.966
27 | AGTGCTTCAT | 0.975
28 | ATTCCATACG | 1.07
29 | CTAATTCGCT | 1.02
30 | ATGGAG | 0.976
31 | GGGAACCCTT | 0.974
32 | GTTCCTGTTC | 0.995
33 | ACCTTAACTA | 1.08
34 | GCTTTGAGCA | 0.947
35 | GTACTAAG | 1.06
36 | TCATTGTAGA | 1.01
37 | AAATTTTCTA | 0.999
38 | GATTTACTTG | 1.05
39 | AGCTAAAGCT | 1.04
40 | CCGTTTTTAA | 1.05
41 | AGGAATTGAC | 0.997
42 | ATGGTATA | 1.03
43 | TAGTCAGCGA | 1.05
44 | TCCTCAACA | 1.28
45 | CCTTCAATAT | 3.41
46 | ATTCGGTTCT | 0.975

Row | Sequence | switch fluorescence ratio
47 | CTCGGGAAGG | 1.03
48 | TGAGCCGCTG | 0.999
49 | TTCGCTTACT | 1.27
50 | TCGCCAAAAG | 1.1
51 | TAATTTGCCT | 1.03
52 | GCAGCCAGTG | 1.11
53 | CAGAGCGTTG | 0.995
54 | AAAATTGAGT | 1.04
55 | GGGATAACTT | 0.982
56 | ATCGCGCCTG | 0.96
57 | AAATCAGGGT | 0.988
58 | AGGGTCCGGC | 1.04
59 | ATTGCTCTAA | 1.02
60 | GGATGTCCGA | 1.02
61 | CAGAAGGGGC | 1.08
62 | TTCACTGCGG | 1.01
63 | CTCCTTAGTA | 1.03
64 | ACTAATATTA | 1.01
65 | GAGGAATCAG | 0.999
66 | TAAATGAAAC | 1.11
67 | AATGGGCTAC | 0.991
68 | TAAATATATA | 1
69 | TTGTTGTCGT | 0.995

Row | Sequence | switch fluorescence ratio
70 | TCTGGCCGGA | 1.04
71 | TGTTGATTCA | 1.02
72 | GGCGATATTC | 1.08
73 | GGACATCAAG | 1.03
74 | ATTCTCGAGT | 0.971
75 | TACCAGTAA | 1.03
76 | TTTCTTCTG | 1.08
77 | CTTAACCCCC | 1.57
78 | AAAGATA | 0.988
79 | CGGCTATGAA | 1.04
80 | CATTAGGTAT | 0.986
81 | TGAGAGGTTG | 0.97
82 | GAAGAACTAG | 1.04
83 | ATCGGGCCGC | 0.983
84 | CATGTATCCC | 1.02
85 | CCTTGGACT | 0.993
86 | GATACGCAGC | 1.73
87 | GTGGTCTGGC | 1.05
88 | TTGGGCAATT | 0.993
89 | GATGATGATA | 1.03
90 | TAGTAATCCG | 0.976
91 | CTACACAGCA | 1.08
92 | GTAGGCCAAC | 1.02

Row | Sequence | switch fluorescence ratio
93 | GGGAGCAGAC | 2.75
94 | GTTTGATTCA | 0.999
95 | TAGGCTAATA | 0.964
96 | TTGGAACGGA | 1.11
97 | AGGCGGTGGT | 0.924
98 | CGCATCTTTA | 1.05
99 | TATGAAATGG | 0.965
100 | CATTAGCAGA | 1.09
101 | AGTCCCGCTC | 1.24
102 | AAGTACTATT | 1.3
103 | TACACACAAG | 1.33
104 | CTCGTACGGG | 0.988
105 | ACCTGTCGAG | 1.06
106 | GGTCTGGCGC | 1.03
107 | CCTGAGATAT | 1.09
108 | TATTTTCCTT | 0.939
109 | AACGTAGGCT | 1.02
110 | ATGGTACGTT | 0.99
111 | CAGGTTATAG | 1.01
112 | ATTGGCGCGT | 1
113 | CGGTTACTTA | 1.01
114 | CTTTCGTTGG | 0.979
115 | TACTGGTAGT | 1.03

Row | Sequence | switch fluorescence ratio
116 | AGCGCCGTCC | 1.02
117 | GCCTCTGTTC | 1.05
118 | AGCGGTTACT | 1.11
119 | TACGCCGACG | 1.14
120 | CTGATCACCG | 1.01
121 | CCACCATGCC | 1.11
122 | CCCGTCGGTA | 1.01
123 | CGGGGCGGC | 1.05
124 | GGTATAGTCA | 1.01
125 | GCGCAAAAAA | 1.03
126 | TATTATCGTT | 0.992
127 | ATTTGGCGGA | 0.996
128 | GCCTTCCATA | 1.37
129 | CGCGGACCTG | 0.946
130 | GCTGGATACC | 0.98
131 | TGCAAATGAT | 0.991
132 | CCCACTATTT | 1.07
133 | GCTTGAGTCT | 0.969
134 | AACAGGTACG | 1.08
135 | AAATACTTAC | 1.34
136 | CGCGCTTGCC | 1.03
137 | ATTCGCAAAT | 2.14
138 | TCCGCATCTT | 4.67

Row | Sequence | switch fluorescence ratio
139 | CAGACTTTAC | 1.24
140 | AGGCTTTGGT | 0.979
141 | CTTGGATTAC | 1.27
142 | CTAGGGTAAA | 0.972
143 | ACTTTCGACC | 1.33
144 | CGATAAATGA | 1.01
145 | GAATGAATGG | 0.974
146 | TGAGGCTGTG | 0.991
147 | TAATGGGTCG | 1.01
148 | GCTTCACGGG | 1.01
149 | GAACACAGTC | 0.984
150 | ATGCACGCTC | 1.02
151 | ACTTTGATCT | 1.02
152 | GTATGGGTGA | 0.994
153 | AGGTAATTGG | 0.985
154 | CCGAGTTGTA | 1.12
155 | GGCTACTTCG | 0.999
156 | CATCGGGAGC | 1.03
157 | GTCAATTTAA | 1

Reference: the supplement of paper PMC10126150
